Measured values published in paper PMC10405735 (Frontiers in Immunology, 2023).

Biological target: T1, hCXCL12, unlabeled (human, UniProt P48061 part only)
T1 construct: CXCL12, human; also called X12
Assay: flow cytometry on cells; competition binding at 4°C: 300.19 cells expressing mGPR182 or hGPR182 with 3 nM fluorescent chemokine and increasing concentrations of its unlabeled counterpart, 45 min
Settings: one partner purified

- Kd: 50 nM
B1: human GPR182 (hGPR182), expressed from hGPR182 T2A GFP in 300.19 pre-B cells (receptor, UniProt O15218 1-404, looked up)
chain: MSVKPSWGPGPSEGVTAVPTSDLGEIHNWTELLDLFNHTLSECHVELSQSTKRVVLFALYLAMFVVGLVENLLVICVNWRGSGRAGLMNLYILNMAIADLGIVLSLPVWMLEVTLDYTWLWGSFSCRFTHYFYFVNMYSSIFFLVCLSVDRYVTLTSASPSWQRYQHRVRRAMCAGIWVLSAIIPLPEVVHIQLVEGPEPMCLFMAPFETYSTWALAVALSTTILGFLLPFPLITVFNVLTACRLRQPGQPKSRRHCLLLCAYVAVFVMCWLPYHVTLLLLTLHGTHISLHCHLVHLLYFFYDVIDCFSMLHCVINPILYNFLSPHFRGRLLNAVVHYLPKDQTKAGTCASSSSCSTQHSIIITKGDSQPAAAAPHPEPSLSFQAHHLLPNTSPISPTQPLTPS
notes: GPR182, human; Expressed fused via a self-cleaving T2A peptide to GFP (backbone pME-Cas9-T2A-GFP, Addgene 63155); split post-translationally; also called ACKR5 (proposed); source: 300.19 mouse pre-B cells, stably transfected, on cells
